Test results as given in PubChem BioAssay AID1745853 (National Center for Advancing Translational Sciences (NCATS), 2022).
The other results are listed elsewhere or left out. Shown are side measurements of this screen, not its main read-out; they come without a call.

Legend:
Assay in all cases: Primary Screen for Target Class Profiling of Small Molecule Inhibitors of Methyltransferases
[1] = biological target: Glycine N-methyltransferase (Homo sapiens) (UniProt Q14749); details: purified enzyme, MTase-Glo SAH luminescence; measured here: GNMT inhibition; at 40 µM; stronger effect = lower value
Method in brief: (§1)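 Each enzyme was assayed with SAM and its substrate. SAH formation detected by MTase-Glo luminescence; single-point 40 uM screen[…].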

[2] = biological target: Guanidinoacetate N-methyltransferase (Homo sapiens) (UniProt Q14353); details: purified enzyme, MTase-Glo SAH luminescence; measured here: GAMT inhibition; at 40 µM; stronger effect = lower value
Method in brief: as §1

[3] = biological target: Histamine N-methyltransferase (Homo sapiens) (UniProt P50135); details: purified enzyme, MTase-Glo SAH luminescence; measured here: HNMT inhibition; at 40 µM; stronger effect = lower value
Method in brief: as §1

[4] = biological target: Nicotinamide N-methyltransferase (Homo sapiens) (UniProt P40261); details: purified enzyme, MTase-Glo SAH luminescence; measured here: NNMT inhibition; at 40 µM; stronger effect = lower value
Method in brief: as §1

[5] = biological target: Phenylethanolamine N-methyltransferase (Homo sapiens) (UniProt P11086); details: purified enzyme, MTase-Glo SAH luminescence; measured here: PNMT inhibition; at 40 µM; stronger effect = lower value
Method in brief: as §1
% is scaled to controls: 0 for no effect and ±100 for the full control effect.

| SMILES | activity change, negative = inhibition [1] [%] | activity change, negative = inhibition [2] [%] | activity change, negative = inhibition [3] [%] | activity change, negative = inhibition [4] [%] | activity change, negative = inhibition [5] [%] |
| --- | --- | --- | --- | --- | --- |
| O=C(Cn1nc2nc(Nc3ccc(F)cc3)ccn2c1=O)Nc1cccc(F)c1 | -7.51 | -5.79 | 0.768 | -12.5 | -6.82 |
| Cc1ccc(N(CC(=O)N[C@H]2C[C@@H]3OCC[C@H]23)S(C)(=O)=O)cc1 | -0.465 | 0.13 | 1.88 | 2.8 | -0.204 |
| CC(C)Oc1ccc(CNC(=O)Cn2ccc3cc(S(=O)(=O)N4CCCCC4)ccc32)cc1 | 1.43 | 0 | 6.13 | 2.9 | 1.38 |
| CN(CCc1nc2ccc(Cl)cc2[nH]1)c1cc(C2CC(O)C2)nc(N)n1 (stereo not given) | -5.56 | -7.23 | -54.4 | -15.7 | -1.57 |
| O=C1NC(=O)C(c2ccccc2[N+](=O)[O-])=C1Nc1ccc(O)c(Cl)c1 | -49.2 | -3.63 | -4.01 | -17.2 | -31.1 |
| Cc1cc2[nH]c(=O)[nH]c2cc1S(=O)(=O)NCCc1ccc(Cl)cc1 | 12.4 | 0 | 12.2 | -0.972 | 6.07 |
| Cc1noc(-c2cccn3c(CNC(=O)Cc4cccc(F)c4)nnc23)n1 | -1.94 | 0.874 | -0.448 | 2.89 | -1.55 |
| CN(C)C(=O)COC(=O)c1cc(-c2ccc(C3CCNCC3)cc2)c2ccc(-c3ccc(C(F)(F)F)cc3)cc2c1 | -6.8 | 8.7 | 1 | -27.5 | 2.85 |
| COc1ccccc1CN1C(=O)c2cc3ccccc3n2CC1(C)C(=O)NCCC(C)C (stereo not given) | 3.26 | 0.956 | 3.6 | -0.207 | -2.02 |
| COC(=O)COc1ccc2c(-c3ccccc3)cc(=O)oc2c1 | -5.54 | 0 | 3.26 | -7.96 | -22.2 |
| CS(=O)(=O)c1ccc(CN2CCC(C(O)c3ccccn3)CC2)cc1 (stereo not given) | -3.66 | -3.27 | -2.37 | -7.07 | -5.5 |
| CC1(C(=O)NCc2ccccc2)Cn2c(ccc2-c2ccco2)C(=O)N1CCc1ccco1 (stereo not given) | -4.87 | 0.752 | 1.27 | -3.36 | -3.91 |
| Cc1cccc(NC(=O)N2Cc3c(sc4c3CCCC4)-n3cccc3C2c2ccccc2)c1 (stereo not given) | -4.19 | 4.57 | -4.83 | -5.3 | -0.767 |
| Cc1ccc(NS(=O)(=O)c2ccc3[nH]c4c(c3c2)CCCC4)cc1Cl | -1.71 | 4.24 | 1.38 | -15.2 | 0.636 |
| O=C(O[C@H]1[C@H](Oc2ccc(O)cc2CO)O[C@H](CO)[C@@H](O)[C@@H]1O)c1ccccc1 | 0 | 7.38 | 10.3 | -4.87 | 4.36 |
| CCN1CCN(CCN2CC3(CCN(C4CCOCC4)CC3)OC2=O)CC1 | -4.6 | -5.68 | -2.85 | -9.87 | 8.53 |
| Cc1cnc(-c2ccccc2)n1C1CCN(S(=O)(=O)c2ccc3c(c2)OCCO3)CC1 | -7.46 | 0.502 | -1.35 | -20.2 | -1.48 |
| COc1ccc(N2C(=O)c3cc4ccccc4n3CC2(C)C(=O)NCCC(C)C)c(OC)c1 (stereo not given) | 1.26 | 3.46 | 1.68 | 0.697 | -0.586 |
| COc1cccc(CN2C(=O)c3cc4ccccc4n3CC2(C)C(=O)NCCCOC(C)C)c1OC (stereo not given) | -3.55 | 5.32 | -0.768 | 6.25 | -0.313 |

| SMILES | activity change, negative = inhibition [1] [%] | activity change, negative = inhibition [2] [%] | activity change, negative = inhibition [3] [%] | activity change, negative = inhibition [4] [%] | activity change, negative = inhibition [5] [%] |
| --- | --- | --- | --- | --- | --- |
| CC(C)CCNC(=O)C1(C)Cn2nc(C(=O)NCc3ccc4c(c3)OCO4)cc2C(=O)N1C (stereo not given) | 1.64 | 0 | 2.37 | 2.98 | 2.67 |
| COCCCNC(=O)CCc1nnc2n(CCc3ccccc3)c(=O)c3ccccc3n12 | -11.2 | -0.023 | -2.21 | -1.16 | -7.29 |
| COc1ccc(CC(=O)NC2CCN(C(=O)c3ccc(-c4cccs4)cc3)CC2)cc1 | -3.28 | -1.45 | 1.22 | -3.13 | -3.85 |
| Cc1ccc(Cn2c(=O)c3ccc(C(=O)NC(C)C)cc3n3c(=O)n(Cc4ccccc4F)nc23)cc1 | 3.17 | 0.594 | -3.17 | 1.3 | 4.82 |
| O=C(NCc1ccccc1F)c1ccc2c(=O)nc3c(-c4cccc(F)c4)n[nH]n3c2c1 | -7.02 | 3.81 | 8.28 | 0.413 | -2.87 |
| Cc1ccc(NC(=O)Cn2nc3n(Cc4ccc(F)cc4)c(=O)c4ccccc4n3c2=O)c(Cl)c1 | 0.171 | 0.517 | 1.9 | -1.81 | -2.09 |
| COC(=O)c1cc2n(n1)CC(C)(C(=O)NC1CCCCCC1)N(c1ccc(F)cc1)C2=O (stereo not given) | -3.55 | 0.415 | -0.641 | -6.14 | -6.4 |
| CC(C)C1NC(=O)C2CCCN2C1=O (stereo not given) | 4.43 | 3.75 | 11 | -8.46 | 6.35 |
| COCCOc1nc(-c2ccc(Cl)c(Cl)c2)n(-c2ccc(NC(=O)CCl)cc2)n1 | -16.9 | -11.5 | -8.61 | -31.2 | -6.34 |
| CCCC1c2cccn2CCN1C(=O)NCCOC (stereo not given) | 1.42 | 0 | 9.04 | 0.275 | 3.36 |
| CCCn1c(=O)c2ccc(C(=O)NCC(C)C)cc2n2c(=O)n(CC(=O)c3ccccc3)nc12 | -1.84 | 4.59 | 3.21 | -1.43 | 2.68 |
| CCCC1c2cccn2CCN1C(=O)Nc1cccc(SC)c1 (stereo not given) | -4.59 | 0 | -23.7 | -6.98 | -1.6 |
| CCCn1c(=O)c2ccc(C(=O)NCC(C)C)cc2n2c(=O)n(CC(=O)N(C)c3ccccc3)nc12 | 7.92 | 0.76 | 3.18 | 8.56 | 7.62 |
| NC(=O)[C@H]1C[C@@H](O)[C@H](O)[C@H]2[C@@H]1SC(=Nc1ccc(Cl)cc1)N2Cc1ccc(F)cc1 | -2.24 | -0.408 | -0.689 | -2.94 | 4.07 |
| COc1ccc(C(=O)N2CCCC3(CN[S+](=O)([O-])c4ccccc4N3)C2)cc1 (stereo not given) | -2.21 | -0.92 | -0.697 | -3.8 | 1.53 |
| CC12CCC(C(OC3OC(COC4OCC(O)(CO)C4O)C(O)C(O)C3O)C1)C(C)(C)O2 (stereo not given) | 3.1 | 3.11 | 9.57 | -8.02 | 6.41 |
| C[C@@H]1CN(C(=O)c2ccc(Cn3cnnn3)cc2)C[C@@]1(O)C1CCC1 | -0.516 | -1.21 | 1 | -0.55 | -1.86 |
| CCCN(CCC)CCCN1C(=O)c2cc3sccc3n2CC1(C)C(=O)NC1CCCCCC1 (stereo not given) | 4.84 | 0.375 | -3.8 | 4.44 | 5.4 |
| C[S+](=O)([O-])c1ccc(-c2cc(C(=O)N3CCOCC3)nn3cccc23)cc1 | -1.88 | 0.895 | -1.32 | -1.94 | 0.451 |
